# The supplement of paper PMC8728848
# This is one part of the list.
# B1: PX9961J-bvu-499-24-499 (Bacteroides vulgatus) (protein)
# chain: LNTDPSTAVPSDDAIKNIDDAQVALNGIYRLASAHSYYGDNYLYYADCRGEDVQARINKGAGRRVSPYYFFDVTADDNFNITLVWNQPYKVIHQANSLIEKLDAGNAGNARPEEVARIKSEALAMRGLALFDLTRLFGMPYTLDNGASLGVPIEIQTTLEDHAPERNTVAQCYEQVLKDLNDALGGLTKEKHDAYMNYWSVKALLSRVYLYMNDNENALKCAEEVINDNGGIYRLFTHDEYPSVWGKDFNSESLFEFYFTMSEPSGGSGGEGAPMVYADNVKDWNNLILTKAYLDLLNEDPEDVRHVFPHLPENAVADTLPVAAKGQPKYLIKYPGKSGSVTDAVSTVNPQDNDLCILRLSEVYLNAAEAAFKIGNTEKALTYLNAIVTRANPAKSVTSADLSLERILKERRKELVGEGHAFFDYMRNGKSVDRSGGWHLTMPEDARVIAPSDPRVALPIPQTEIDANPNIVQNPR
# Tests used:
# Test in all cases: glycan array binding signal (z-score within array); higher = stronger binding
# Conditions in all cases: glycan notation: IUPAC condensed, linker removed
# [1] = molecular target: Gal(a1-3)Gal(b1-3)GlcNAc
# Method in brief: (§1)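 Glycan array data came from 3228 arrays in the Consortium for Functional Glycomics database, and only arrays with an available protein sequence were kept. Glycan names were put into IUPAC-condensed notation, and columns mapping to the same glycan were averaged. The binding signal is a within-array Z-score, averaged across arrays of one protein sequence run at different concentrations or buffers and across linkers. A negative Z-score can be read as non-binding.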
# [2] = molecular target: Gal(a1-3)Gal(b1-3)GlcNAc(b1-2)Man
# Method in brief: as §1
# [3] = molecular target: Gal(a1-3)Gal(b1-3)GlcNAc(b1-2)Man(a1-3)[Gal(a1-3)Gal(b1-3)GlcNAc(b1-2)Man(a1-6)]Man(b1-4)GlcNAc(b1-4)GlcNAc
# Method in brief: as §1
# [4] = molecular target: Gal(a1-3)Gal(b1-3)GlcNAc(b1-3)GalNAc
# Method in brief: as §1
# [5] = molecular target: Gal(a1-3)Gal(b1-3)GlcNAc(b1-6)GalNAc
# Method in brief: as §1
# [6] = molecular target: Gal(a1-3)Gal(b1-3)[Fuc(a1-4)]GlcNAc(b1-2)Man(a1-3)[Gal(a1-3)Gal(b1-3)[Fuc(a1-4)]GlcNAc(b1-2)Man(a1-6)]Man(b1-4)GlcNAc(b1-4)GlcNAc
# Method in brief: as §1
# [7] = molecular target: Gal(a1-3)Gal(b1-4)Glc
# Method in brief: as §1
# [8] = molecular target: Gal(a1-3)Gal(b1-4)GlcNAc
# Method in brief: as §1
# [9] = molecular target: Gal(a1-3)Gal(b1-4)GlcNAc(b1-2)Man
# Method in brief: as §1
# [10] = molecular target: Gal(a1-3)Gal(b1-4)GlcNAc(b1-2)Man(a1-3)[Gal(a1-3)Gal(b1-4)GlcNAc(b1-2)Man(a1-6)]Man(b1-4)GlcNAc(b1-4)GlcNAc
# Method in brief: as §1
# [11] = molecular target: Gal(a1-3)Gal(b1-4)GlcNAc(b1-3)GalNAc
# Method in brief: as §1
# [12] = molecular target: Gal(a1-3)Gal(b1-4)GlcNAc(b1-6)GalNAc
# Method in brief: as §1
# [13] = molecular target: Gal(a1-3)Gal(b1-4)[Fuc(a1-3)]GlcNAc
# Method in brief: as §1
# [14] = molecular target: Gal(a1-3)Gal(b1-4)[Fuc(a1-3)]GlcNAc(b1-2)Man(a1-3)[Gal(a1-3)Gal(b1-4)[Fuc(a1-3)]GlcNAc(b1-2)Man(a1-6)]Man(b1-4)GlcNAc(b1-4)GlcNAc
# Method in brief: as §1
# [15] = molecular target: Gal(a1-3)GalNAc
# Method in brief: as §1
# [16] = molecular target: Gal(a1-3)[Gal(a1-4)]Gal(b1-4)GlcNAc
# Method in brief: as §1
# [17] = molecular target: Gal(a1-4)Gal(b1-3)GlcNAc(b1-2)Man(a1-3)[Gal(a1-4)Gal(b1-3)GlcNAc(b1-2)Man(a1-6)]Man(b1-4)GlcNAc(b1-4)GlcNAc
# Method in brief: as §1
# [18] = molecular target: Gal(a1-4)Gal(b1-4)Glc
# Method in brief: as §1
# [19] = molecular target: Gal(a1-4)Gal(b1-4)GlcNAc
# Method in brief: as §1
# [20] = molecular target: Gal(a1-4)Gal(b1-4)GlcNAc(b1-2)Man(a1-3)[Gal(a1-4)Gal(b1-4)GlcNAc(b1-2)Man(a1-6)]Man(b1-4)GlcNAc(b1-4)GlcNAc
# Method in brief: as §1
# [21] = molecular target: Gal(a1-4)Gal(b1-4)GlcNAc(b1-3)Gal(b1-4)Glc
# Method in brief: as §1
# [22] = molecular target: Gal(a1-4)GlcNAc
# Method in brief: as §1
# [23] = molecular target: Gal(a1-6)Glc
# Method in brief: as §1
# [24] = molecular target: Gal(b1-2)Gal
# Method in brief: as §1
# [25] = molecular target: Gal(b1-3)Gal
# Method in brief: as §1
# [26] = molecular target: Gal(b1-3)Gal(b1-4)GlcNAc
# Method in brief: as §1
# [27] = molecular target: Gal(b1-3)GalNAc
# Method in brief: as §1
# [28] = molecular target: Gal(b1-3)GalNAc(a1-3)[Fuc(a1-2)]Gal(b1-4)Glc
# Method in brief: as §1
# [29] = molecular target: Gal(b1-3)GalNAc(a1-3)[Fuc(a1-2)]Gal(b1-4)GlcNAc
# Method in brief: as §1
# [30] = molecular target: Gal(b1-3)GalNAc(b1-3)Gal
# Method in brief: as §1
# [31] = molecular target: Gal(b1-3)GalNAc(b1-3)Gal(a1-4)Gal(b1-4)Glc
# Method in brief: as §1
# [32] = molecular target: Gal(b1-3)GalNAc(b1-4)Gal(b1-4)Glc
# Method in brief: as §1
# [33] = molecular target: Gal(b1-3)GalNAc(b1-4)[Neu5Ac(a2-3)]Gal(b1-4)Glc
# Method in brief: as §1
# [34] = molecular target: Gal(b1-3)GlcNAc
# Method in brief: as §1
# [35] = molecular target: Gal(b1-3)GlcNAc(a1-3)Gal(b1-4)GlcNAc
# Method in brief: as §1
# [36] = molecular target: Gal(b1-3)GlcNAc(a1-6)Gal(b1-4)GlcNAc
# Method in brief: as §1
# [37] = molecular target: Gal(b1-3)GlcNAc(b1-2)Man
# Method in brief: as §1
# [38] = molecular target: Gal(b1-3)GlcNAc(b1-2)Man(a1-3)[Gal(b1-3)GlcNAc(b1-2)Man(a1-6)]Man(b1-4)GlcNAc(b1-4)GlcNAc
# Method in brief: as §1
binder,measurement,setting,value
B1,glycan array binding signal (z-score),[1],-0.556
same,glycan array binding signal (z-score),[2],-0.661
same,glycan array binding signal (z-score),[3],0.434
same,glycan array binding signal (z-score),[4],-0.17
same,glycan array binding signal (z-score),[5],1.19
same,glycan array binding signal (z-score),[6],2.95
same,glycan array binding signal (z-score),[7],-0.491
same,glycan array binding signal (z-score),[8],0.539
same,glycan array binding signal (z-score),[9],-0.342
same,glycan array binding signal (z-score),[10],0.825
same,glycan array binding signal (z-score),[11],0.164
same,glycan array binding signal (z-score),[12],0.008
same,glycan array binding signal (z-score),[13],0.904
same,glycan array binding signal (z-score),[14],0.201
same,glycan array binding signal (z-score),[15],-0.16
same,glycan array binding signal (z-score),[16],3.12
same,glycan array binding signal (z-score),[17],-0.024
same,glycan array binding signal (z-score),[18],-0.223
same,glycan array binding signal (z-score),[19],-0.357
same,glycan array binding signal (z-score),[20],0.648
same,glycan array binding signal (z-score),[21],0.194
same,glycan array binding signal (z-score),[22],-0.103
same,glycan array binding signal (z-score),[23],-0.161
same,glycan array binding signal (z-score),[24],0.084
same,glycan array binding signal (z-score),[25],-0.099
same,glycan array binding signal (z-score),[26],-0.194
same,glycan array binding signal (z-score),[27],0.218
same,glycan array binding signal (z-score),[28],-0.211
same,glycan array binding signal (z-score),[29],-0.492
same,glycan array binding signal (z-score),[30],-0.258
same,glycan array binding signal (z-score),[31],0.285
same,glycan array binding signal (z-score),[32],0.794
same,glycan array binding signal (z-score),[33],-1.14
same,glycan array binding signal (z-score),[34],0.304
same,glycan array binding signal (z-score),[35],-0.6
same,glycan array binding signal (z-score),[36],-0.184
same,glycan array binding signal (z-score),[37],-0.59
same,glycan array binding signal (z-score),[38],0.114
